Results reported in publication PMC9050003, “N- and C-terminal regions of the small heat shock protein IbpA from Acholeplasma laidlawii competitively govern its oligomerization pattern and chaperone-like activity†” (RSC Advances, 2020).

Key:
Assay in all cases: pull-down; His6-AlIbpA proteins (0.4 mg) and bovine insulin (0.4 mg) in 300 μl 50 mM Tris–HCl pH 8.0, 200 mM NaCl, 30 min at 37 °C; Ni-NTA sepharose, eluted with 500 mM imidazole; 17.5% SDS-PAGE; grade from the ratio of band densities
Settings in all cases: both partners purified
[1] = target: T1, AlIbpAΔN25 (Acholeplasma laidlawii, UniProt A9NFB2 26-137)
T1 construct: AlIbpA of Acholeplasma laidlawii PG8 with 25 N-terminal amino acids removed (lacks both (W/F)(D/F)PF-like motifs); source: E. coli BL21(DE3), purified (Ni-NTA); not shown: His6, N-terminal, kept
T1 sequence (looked up): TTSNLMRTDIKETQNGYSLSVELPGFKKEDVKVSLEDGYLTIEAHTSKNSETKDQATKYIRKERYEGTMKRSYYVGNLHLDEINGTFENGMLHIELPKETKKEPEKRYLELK

[2] = target: T2, full-length recombinant AlIbpA (small heat shock protein IbpA from Acholeplasma laidlawii), His6-tagged (Acholeplasma laidlawii, UniProt A9NFB2 1-137)
T2 construct: small heat shock protein IbpA (AlIbpA) of Acholeplasma laidlawii PG8, full length; Legends call it AlIbpA-His6, the methods say the His6 tag is N-terminal; In solution a mixture of about 24-mer globules, fibrils and agglomerates; also called AlIbpA-His6; His6-IbpA; source: E. coli BL21(DE3), purified (Ni-NTA); also in E. coli BL21 pET-IbpA cells, cross-linked in the cells, crude cell extract; not …
T2 sequence (looked up): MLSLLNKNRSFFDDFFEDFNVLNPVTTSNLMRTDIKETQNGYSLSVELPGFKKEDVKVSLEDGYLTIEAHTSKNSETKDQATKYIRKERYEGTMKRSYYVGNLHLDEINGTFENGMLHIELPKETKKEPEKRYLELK

[3] = target: T3, AlIbpASEPΔN25 (Acholeplasma laidlawii, UniProt A9NFB2 26-137, L134 replaced by S134 | L136 replaced by P136)
T3 construct: AlIbpA of Acholeplasma laidlawii PG8 lacking 25 N-terminal amino acids and with LEL substituted by SEP (L134S, L136P); source: E. coli BL21(DE3), purified (Ni-NTA); not shown: His6, N-terminal, kept
T3 sequence (looked up): T1 sequence (looked up) with L109S, L111P

[4] = target: T4, AlIbpAN11N12 (Acholeplasma laidlawii, UniProt A9NFB2 1-137, F11 substituted by N11 | F12 substituted by N12)
T4 construct: AlIbpA of Acholeplasma laidlawii PG8 with F11F12 substituted by N11N12, complete N-terminus length kept; source: E. coli BL21(DE3), purified (Ni-NTA); not shown: His6, N-terminal, kept
T4 sequence (looked up): T2 sequence (looked up) with F11N, F12N

[5] = target: T5, AlIbpASEPΔN12 (Acholeplasma laidlawii, UniProt A9NFB2 13-137, L134 replaced by S134 | L136 replaced by P136)
T5 construct: AlIbpA of Acholeplasma laidlawii PG8 lacking 12 N-terminal amino acids and with LEL substituted by SEP (L134S, L136P); source: E. coli BL21(DE3), purified (Ni-NTA); not shown: His6, N-terminal, kept
T5 sequence (looked up): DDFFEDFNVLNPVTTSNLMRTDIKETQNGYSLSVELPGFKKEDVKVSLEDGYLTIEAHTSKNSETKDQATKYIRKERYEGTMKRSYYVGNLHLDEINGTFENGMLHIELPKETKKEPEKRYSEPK

[6] = target: T6, AlIbpAΔN12 (Acholeplasma laidlawii, UniProt A9NFB2 13-137)
T6 construct: AlIbpA of Acholeplasma laidlawii PG8 lacking the first 12 amino acid residues; source: E. coli BL21(DE3), purified (Ni-NTA); not shown: His6, N-terminal, kept
T6 sequence (looked up): T5 sequence (looked up) with S122L, P124L

Measured: binding result

B1: bovine insulin (natural protein)
chain 1: not shown
chain 2: not shown
notes: The catalogue number is printed for the SPR experiment; the pull-down methods say only bovine insulin (Sigma); source: bought: Sigma (SigmaAldrich cat no. I6634)
binds: [1] | [2] | [3] | [4] | [5] | [6]

Substitutions are numbered along the chain they refer to.
